The data scatter; read single values as rough.
B1: Ydj1; a variant is named by its letters at X, in order (parent)
chain: MVKETKFYDILGVPVTATDVEIKKAYRKCALKYHPDKNPSEEAAEKFKEASAAYEILSDPEKRDIYDQFGEDGLSGAGGAGGFPGGGFGFGDDIFSQFFGAGGAQRPRGPQRGKDIKHEISASLEELYKGRTAKLALNKQILCKECEGRGGKKGAVKKCTSCNGQGIKFVTRQMGPMIQRFQTECDVCHGTGDIIDPKDRCKSCNGKKVENERKILEVHVEPGMKDGQRIVFKGEADQAPDVIPGDVVFIVSERPHKSFKRDGDDLVYEAEIDLLTAIAGGEFALEHVSGDWLKVGIVPGEVIAPGMRKVIEGKGMPIPKYGGYGNLIIKFTIKFPENHFTSEENLKKLEEILPPRIVPAIPKKATVDECVLADFDPAKYNRTRASRGGANYDSDEEEQGGEGVQCXXX

Variants of: B1
Assay: enrichment factor, frequency at 37 °C / frequency at 25 °C (thermotolerance selection) (ratio); higher = more growth at 37 °C, higher likelihood of farnesylation
Conditions: with Saccharomyces cerevisiae ydj1Δ (yWS304); selective temperature 37 °C; reference temperature 25 °C

| Variant | enrichment factor |
| --- | --- |
| FTS | 2.47 |
| FTM | 2.9 |
| FTH | 1.92 |
| FTI | 3.66 |
| FTQ | 2.17 |
| FTT | 2.68 |
| FTY | 2.27 |
| DTK | 0.175 |
| DTS | 1.57 |
| DTI | 0.606 |
| DTR | 0.143 |
| DTN | 0.934 |
| DTQ | 1.53 |
| DTW | 0.161 |
| DTY | 0.888 |
| DTP | 0.184 |
| DTT | 0.788 |
| DTL | 0.35 |
| DTV | 1.06 |
| DTM | 1.74 |
| HTV | 2.07 |
| HTY | 2.27 |
| HTI | 2.7 |
| HTT | 1.84 |

| Variant | enrichment factor |
| --- | --- |
| HTH | 2.75 |
| HTQ | 1.86 |
| HTL | 1.86 |
| HTK | 0.158 |
| HTW | 1.44 |
| HTR | 0.157 |
| HTM | 2.86 |
| HTN | 2 |
| HTP | 0.358 |
| HTS | 1.99 |
| EVD | 1.77 |
| EVA | 1.66 |
| EVC | 2.19 |
| TVC | 0.666 |
| TVA | 0.807 |
| IVA | 0.891 |
| IVD | 1.68 |
| IVC | 1.11 |
| KVD | 1.27 |
| KVC | 0.703 |
| KVA | 2.35 |
| NTI | 1.75 |
| NTT | 1.61 |
| NTQ | 1.44 |

| Variant | enrichment factor |
| --- | --- |
| NTW | 1.5 |
| NTP | 0.159 |
| NTV | 1.75 |
| NTL | 2.23 |
| NTM | 1.9 |
| NTK | 0.111 |
| NTN | 1.43 |
| NTR | 0.151 |
| NTS | 1.18 |
| NTH | 1.22 |
| NTY | 2.06 |
| KTY | 2.02 |
| KTM | 1.79 |
| KTR | 0.239 |
| KTP | 0.204 |
| KTI | 1.57 |
| KTK | 0.13 |
| KTQ | 1.98 |
| KTL | 1.96 |
| KTV | 1.57 |
| KTW | 1.78 |
| KTS | 1.63 |
| KTH | 1.89 |
| KTN | 1.98 |

| Variant | enrichment factor |
| --- | --- |
| KTT | 1.56 |
| STT | 1.89 |
| STN | 1.95 |
| STH | 2.52 |
| STW | 1.56 |
| STM | 1.79 |
| STQ | 1.76 |
| STS | 2.57 |
| STP | 0.104 |
| STI | 1.76 |
| STY | 2.08 |
| STL | 1.83 |
| STR | 0.0965 |
| STV | 1.79 |
| STK | 0.167 |
| CVC | 1.02 |
| CVA | 0.529 |
| AVC | 1.16 |
| AVD | 1.42 |
| AVA | 0.642 |
| DVA | 1.22 |
| DVC | 0.883 |
| DVD | 1.59 |
| SVA | 0.873 |

| Variant | enrichment factor |
| --- | --- |
| SVD | 1.87 |
| SVC | 0.739 |
| HVD | 2.27 |
| HVC | 1.16 |
| HVA | 1.88 |
| ETW | 1.35 |
| ETT | 1.14 |
| ETH | 1.4 |
| ETV | 1.51 |
| ETK | 0.355 |
| ETP | 0.168 |
| ETY | 1.16 |
| ETL | 2.2 |
| ETS | 1.73 |
| ETI | 1.35 |
| ETN | 1.15 |
| ETR | 0.224 |
| ETM | 2.05 |
| ETQ | 1.59 |
| YTL | 2.27 |
| YTM | 1.42 |
| YTI | 2.52 |
| YTK | 0.172 |
| YTH | 5.6 |

| Variant | enrichment factor |
| --- | --- |
| YTP | 1.21 |
| YTT | 4.67 |
| YTQ | 2.96 |
| YTY | 2.37 |
| YTW | 1.12 |
| YTS | 2.7 |
| YTR | 0.176 |
| YTN | 3.85 |
| YTV | 4.21 |
| LTL | 1.22 |
| LTS | 1.55 |
| LTP | 0.139 |
| LTK | 0.64 |
| LTT | 1.25 |
| LTI | 1.61 |
| LTQ | 1.49 |
| LTR | 0.118 |
| LTY | 1.11 |
| LTN | 1.28 |
| LTW | 0.638 |
| LTV | 1.94 |
| LTH | 1.41 |
| LTM | 1.92 |
| WVA | 0.965 |

| Variant | enrichment factor |
| --- | --- |
| WVC | 0.717 |
| ATN | 1.75 |
| ATM | 1.49 |
| ATV | 2.21 |
| ATY | 1.59 |
| ATR | 0.206 |
| ATI | 1.82 |
| ATH | 1.51 |
| ATQ | 1.42 |
| ATT | 1.54 |
| ATK | 1.22 |
| ATL | 2.12 |
| ATS | 1.23 |
| ATP | 0.225 |
| ATW | 1.04 |
| VVA | 0.855 |
| VVC | 0.655 |
| MVC | 0.849 |
| MVA | 1.23 |
| MVD | 1.98 |
| LVD | 1.78 |
| LVA | 1.79 |
| LVC | 1.22 |
